# Data from the supplement of paper PMC8728848.
# The other results are listed elsewhere or left out.
# What was measured:
# Test in all cases: glycan array binding signal (z-score within array); higher = stronger binding
# Conditions in all cases: glycan notation: IUPAC condensed, linker removed
# [1] = target: Gal4S6S(b1-4)GlcNAc
# How it was run: (§1)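 From the Consortium for Functional Glycomics database, 3228 arrays were curated, keeping only those whose protein sequence was available. Binding is given as a within-array Z-score averaged across arrays sharing a protein sequence and across linkers. Negative Z-scores can be read as non-binding.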
# [2] = target: Gal6S(b1-3)GlcNAc
# How it was run: as §1
# [3] = target: Gal6S(b1-3)GlcNAc6S
# How it was run: as §1
# [4] = target: Gal6S(b1-4)Glc
# How it was run: as §1
# [5] = target: Gal6S(b1-4)Glc6S
# How it was run: as §1
# [6] = target: Gal6S(b1-4)GlcNAc
# How it was run: as §1
# [7] = target: Gal6S(b1-4)GlcNAc6S
# How it was run: as §1
# [8] = target: GalNAc(a1-3)Gal
# How it was run: as §1
# [9] = target: GalNAc(a1-3)GalNAc
# How it was run: as §1
# [10] = target: GalNAc(a1-3)GalNAc(a1-3)Gal(a1-4)Gal(b1-4)GlcNAc
# How it was run: as §1
# [11] = target: GalNAc(a1-3)GalNAc(b1-3)Gal(a1-4)Gal(b1-4)Glc
# How it was run: as §1
# [12] = target: GalNAc(b1-3)Gal
# How it was run: as §1
# [13] = target: GalNAc(b1-3)Gal(a1-4)Gal(b1-4)GlcNAc
# How it was run: as §1
# [14] = target: GalNAc(b1-3)Gal(a1-4)Gal(b1-4)GlcNAc(b1-3)Gal(b1-4)Glc
# How it was run: as §1
# [15] = target: GalNAc(b1-3)Gal(a1-6)Gal(b1-4)Glc
# How it was run: as §1
# [16] = target: GalNAc(b1-3)GalNAc
# How it was run: as §1
# [17] = target: GalNAc(b1-4)GlcNAc
# How it was run: as §1
# [18] = target: GalNAc(b1-4)GlcNAc(b1-2)Man(a1-3)[GalNAc(b1-4)GlcNAc(b1-2)Man(a1-6)]Man(b1-4)GlcNAc(b1-4)GlcNAc
# How it was run: as §1
# [19] = target: GalNAc(b1-6)GalNAc
# How it was run: as §1
# [20] = target: Glc(a1-4)Glc
# How it was run: as §1
# [21] = target: Glc(a1-6)Glc(a1-6)Glc
# How it was run: as §1
# [22] = target: Glc(b1-4)Glc
# How it was run: as §1
# [23] = target: Glc(b1-6)Glc
# How it was run: as §1
# [24] = target: GlcA(b1-3)Gal
# How it was run: as §1
# [25] = target: GlcA(b1-3)GlcNAc
# How it was run: as §1
# [26] = target: GlcA(b1-6)Gal
# How it was run: as §1
# [27] = target: GlcNAc(a1-3)Gal(b1-4)GlcNAc
# How it was run: as §1
# [28] = target: GlcNAc(a1-4)Gal(b1-3)GlcNAc
# How it was run: as §1
# [29] = target: GlcNAc(a1-4)Gal(b1-4)GalNAc
# How it was run: as §1
# [30] = target: GlcNAc(a1-4)Gal(b1-4)GlcNAc
# How it was run: as §1
# [31] = target: GlcNAc(a1-4)Gal(b1-4)GlcNAc(b1-3)Gal(b1-4)Glc
# How it was run: as §1
# [32] = target: GlcNAc(a1-4)Gal(b1-4)GlcNAc(b1-3)Gal(b1-4)GlcNAc
# How it was run: as §1
# [33] = target: GlcNAc(a1-4)Gal(b1-4)GlcNAc(b1-3)Gal(b1-4)GlcNAc(b1-3)Gal(b1-4)GlcNAc
# How it was run: as §1
# [34] = target: GlcNAc(a1-4)Gal(b1-4)GlcNAc(b1-3)Gal(b1-4)[Fuc(a1-3)]GlcNAc(b1-3)Gal(b1-4)[Fuc(a1-3)]GlcNAc
# How it was run: as §1
# [35] = target: GlcNAc(a1-6)Gal(b1-4)GlcNAc
# How it was run: as §1
# [36] = target: GlcNAc(b1-2)Gal(b1-3)GalNAc
# How it was run: as §1
# [37] = target: GlcNAc(b1-2)Man(a1-3)[GlcNAc(b1-2)Man(a1-6)]Man(b1-4)GlcNAc(b1-4)GlcNAc
# How it was run: as §1
# [38] = target: GlcNAc(b1-2)Man(a1-3)[GlcNAc(b1-2)Man(a1-6)]Man(b1-4)GlcNAc(b1-4)[Fuc(a1-6)]GlcNAc
# How it was run: as §1
# [39] = target: GlcNAc(b1-2)Man(a1-3)[GlcNAc(b1-4)][GlcNAc(b1-2)Man(a1-6)]Man(b1-4)GlcNAc(b1-4)GlcNAc
# How it was run: as §1
# [40] = target: GlcNAc(b1-2)[GlcNAc(b1-4)]Man(a1-3)[GlcNAc(b1-2)Man(a1-6)]Man(b1-4)GlcNAc(b1-4)GlcNAc
# How it was run: as §1
# [41] = target: GlcNAc(b1-2)[GlcNAc(b1-4)]Man(a1-3)[GlcNAc(b1-4)][GlcNAc(b1-2)Man(a1-6)]Man(b1-4)GlcNAc(b1-4)GlcNAc
# How it was run: as §1
# [42] = target: GlcNAc(b1-2)[GlcNAc(b1-4)]Man(a1-3)[GlcNAc(b1-4)][GlcNAc(b1-2)[GlcNAc(b1-6)]Man(a1-6)]Man(b1-4)GlcNAc(b1-4)GlcNAc
# How it was run: as §1
# [43] = target: GlcNAc(b1-2)[GlcNAc(b1-6)]Man(a1-6)[GlcNAc(b1-2)Man(a1-3)]Man(b1-4)GlcNAc(b1-4)GlcNAc
# How it was run: as §1
# [44] = target: GlcNAc(b1-2)[GlcNAc(b1-6)]Man(a1-6)[GlcNAc(b1-2)Man(a1-3)][GlcNAc(b1-4)]Man(b1-4)GlcNAc(b1-4)GlcNAc
# How it was run: as §1
# [45] = target: GlcNAc(b1-3)Gal
# How it was run: as §1
# [46] = target: GlcNAc(b1-3)Gal(b1-3)GalNAc
# How it was run: as §1
# [47] = target: GlcNAc(b1-3)Gal(b1-4)Glc
# How it was run: as §1
# [48] = target: GlcNAc(b1-3)Gal(b1-4)GlcNAc
# How it was run: as §1
# [49] = target: GlcNAc(b1-3)Gal(b1-4)GlcNAc(b1-3)Gal(b1-4)GlcNAc
# How it was run: as §1
# [50] = target: GlcNAc(b1-3)GalNAc
# How it was run: as §1
# [51] = target: GlcNAc(b1-3)Man
# How it was run: as §1
# [52] = target: GlcNAc(b1-3)[GlcNAc(b1-4)][GlcNAc(b1-6)]GlcNAc
# How it was run: as §1
# [53] = target: GlcNAc(b1-3)[GlcNAc(b1-6)]Gal(b1-4)GlcNAc
# How it was run: as §1
# [54] = target: GlcNAc(b1-3)[GlcNAc(b1-6)]GalNAc
# How it was run: as §1
# [55] = target: GlcNAc(b1-4)Gal(b1-4)GlcNAc
# How it was run: as §1
# [56] = target: GlcNAc(b1-4)GlcNAc
# How it was run: as §1
# [57] = target: GlcNAc(b1-4)GlcNAc(b1-4)GlcNAc
# How it was run: as §1
# [58] = target: GlcNAc(b1-4)GlcNAc(b1-4)GlcNAc(b1-4)GlcNAc(b1-4)GlcNAc
# How it was run: as §1
# [59] = target: GlcNAc(b1-4)GlcNAc(b1-4)GlcNAc(b1-4)GlcNAc(b1-4)GlcNAc(b1-4)GlcNAc
# How it was run: as §1
# [60] = target: GlcNAc(b1-4)[GlcNAc(b1-6)]GalNAc
# How it was run: as §1
binder,measurement,setting,value
"CwpV (Clostridium difficile), B6EFG6 (protein) MKIPKKIAAMLTVTMIAGSSTAGIASAQTVATNLTGQERYETAVKISQDGWKNADEVVIVNDSSIADALSATPFAKAKNAPILLTSKDKLNDKTKAEIQRLKAKKVYLIGGTSVLSTNIEKEIKDLKISFERISGAERYQTSLELAKKLDAISDVKKIAVVNGEKGLADAVSVGAPAAQNNMPVILADSKNGTAVADKFIKDAGITQSYVVGGESSISEAVKNKLPNSTRLGGTDRNDTNAKVIKEFYKKTDLKNAYVTKDGMNKQDQLIDALAVGVLGAKNQSPVVLVGKNLSASQKSLVNSKSFDKITKVGGNGNETAFNEMKSLQEVKTVEAKTISELKSAIDKATANDVINFKPTSEVKEAFTIQTDKAVTVNLNGTYTKTVTINMPNGDVNNYAKVDDVVIDDVKDGTFVNYGKITNLKVNDKNGAKIENNSKGEIGSLTVASGASQVKVTNGGKITTVTNNSKGTTIDNKGTISSVKGDNSPTISGNSPSSNSSGGSSSSGGSSGGSSGGSSSSKVGQIKFSATDKQIKMASGDKTVDPSDNTYILKLTNGTVKDGDVKANVKVAGLPSGLDYTAVGNRSANTITITVSGTTSQSIQNDLNNVSVLVKAGAVSGTGATDSIANTTFEIKKYVAAPAVGQLTFDATDKQIKMASGDKTVDPSDDTYVLTLTKGTAKDGDIKANVEVTGLPSGLDYTAEGDSSANTITIPVSGTASPAVQTDLDNVSVLVKAGAVSETTATDSAANATFEVKKYVAPAVGQLTFDATDKQIKMASGDKTVDPSDDTYVLTLTKGTAKDGDIKANVEVTGLPSGLDYTAEGDSSANTITITVSGTASQAVQTDLDNVSVLVKAGAVSETTATDSAANATFEVKKYVAPAIGQLTFDATDKQIKMASGDKTVDPSDDTYVLTLTKGTAKDGDIKANVEVTGLPSGLDYTAEGDSSANTITITVSGTASQAVQTDLDNVSVLVKAGAVSETTATDSAANATFEVKKHASDPISTIGKISSGLSSLFNILK",glycan array binding signal (z-score),[1],-0.266
same,glycan array binding signal (z-score),[2],-0.246
same,glycan array binding signal (z-score),[3],-0.347
same,glycan array binding signal (z-score),[4],-0.318
same,glycan array binding signal (z-score),[5],-0.31
same,glycan array binding signal (z-score),[6],-0.29
same,glycan array binding signal (z-score),[7],-0.316
same,glycan array binding signal (z-score),[8],-0.339
same,glycan array binding signal (z-score),[9],-0.235
same,glycan array binding signal (z-score),[10],0.986
same,glycan array binding signal (z-score),[11],2.1
same,glycan array binding signal (z-score),[12],-0.333
same,glycan array binding signal (z-score),[13],0.762
same,glycan array binding signal (z-score),[14],6.4
same,glycan array binding signal (z-score),[15],2.68
same,glycan array binding signal (z-score),[16],-0.322
same,glycan array binding signal (z-score),[17],0.432
same,glycan array binding signal (z-score),[18],-0.06
same,glycan array binding signal (z-score),[19],1.46
same,glycan array binding signal (z-score),[20],-0.288
same,glycan array binding signal (z-score),[21],-0.21
same,glycan array binding signal (z-score),[22],-0.296
same,glycan array binding signal (z-score),[23],-0.268
same,glycan array binding signal (z-score),[24],-0.343
same,glycan array binding signal (z-score),[25],8.78
same,glycan array binding signal (z-score),[26],-0.341
same,glycan array binding signal (z-score),[27],-0.125
same,glycan array binding signal (z-score),[28],-0.16
same,glycan array binding signal (z-score),[29],-0.136
same,glycan array binding signal (z-score),[30],-0.192
same,glycan array binding signal (z-score),[31],-0.156
same,glycan array binding signal (z-score),[32],1.04
same,glycan array binding signal (z-score),[33],0.147
same,glycan array binding signal (z-score),[34],0.469
same,glycan array binding signal (z-score),[35],-0.317
same,glycan array binding signal (z-score),[36],-0.207
same,glycan array binding signal (z-score),[37],-0.124
same,glycan array binding signal (z-score),[38],-0.045
same,glycan array binding signal (z-score),[39],-0.279
same,glycan array binding signal (z-score),[40],-0.306
same,glycan array binding signal (z-score),[41],-0.317
same,glycan array binding signal (z-score),[42],-0.323
same,glycan array binding signal (z-score),[43],-0.21
same,glycan array binding signal (z-score),[44],-0.331
same,glycan array binding signal (z-score),[45],-0.279
same,glycan array binding signal (z-score),[46],-0.217
same,glycan array binding signal (z-score),[47],-0.297
same,glycan array binding signal (z-score),[48],0.234
same,glycan array binding signal (z-score),[49],0.635
same,glycan array binding signal (z-score),[50],-0.322
same,glycan array binding signal (z-score),[51],-0.319
same,glycan array binding signal (z-score),[52],-0.258
same,glycan array binding signal (z-score),[53],-0.274
same,glycan array binding signal (z-score),[54],-0.265
same,glycan array binding signal (z-score),[55],-0.302
same,glycan array binding signal (z-score),[56],0.016
same,glycan array binding signal (z-score),[57],0.952
same,glycan array binding signal (z-score),[58],0.768
same,glycan array binding signal (z-score),[59],1.05
same,glycan array binding signal (z-score),[60],-0.284
